Reference: the supplement of paper PMC10338343
± gives the standard deviation. The full ranking holds about 6,600 sequences; the median of “pre-steady-state target cleavage rate” is about 0.07, and the highest 2% start at about 0.72. The list shows a part of the results, in another mix than the full data.

These sequences were tested on MIWI (PIWIL1) piRISC loaded with Kctd7 piRNA (30 nt) (assay: pre-steady-state target cleavage rate (min^-1); MIWI and MILI are mouse PIWI proteins and EfPiwi is from a freshwater sponge; tags in brackets are library labels; higher = faster piRNA-guided slicing of the target). Details: guide: Kctd7 piRNA 5'p-UGUUAAUCUCUCAGAGAAGGUGACAGUGAU; auxiliary factor: 500 nM mouse GTSF1.
How it was run: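 In HEPES–potassium acetate buffer at 33 °C, […] transcribed, DNA-blocked target RNA library was mixed with 1 nM active affinity-purified piRISC carrying one synthetic guide, with or without 500 nM GTSF1 partner protein, for 0–8 or 0–960 min. Uncleaved targets were sequenced and normalised to depth and to weakly complementary targets; three trials were pooled and k3 was capped at 0.0001 min^-1. The pre-steady-state cleavage rate followed from a burst-and-steady-state fit.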
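Further: 1 nM active piRISC with 0.1 nM target library at 33 °C single turnover.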

Sequence | pre-steady-state target cleavage rate
UAGUGACAGUCCUUGUCUGAGAGAUUAACA | 0.0135 ± 0.0024
UAGUGUGUCACCUUCUCUGAAAGAUUAACA | 0.395 ± 0.02
UAGUGAGUCACCUUCUCUGAGAGAAAUAGA | 0.0114 ± 0.006
UAGUGAGUCUCCUUCUCUGACAGAUUAACA | 0.376 ± 0.031
UAGUGAGUCACCUUCUCAGUGAGAUUAACA | 0.0258 ± 0.0056
UACACUGUCACCUUCUCAGAGAGAUUUUGA | 0.0831 ± 0.026
UAGACUGUCACCUUCUCUGAGAGAUUCAACA | 0.306 ± 0.048
UUCACUGUCACACUUCUCUGAGAGAUUAACA | 0.614 ± 0.03
UAGUCUGUACACCUUCUCUGAGAGAUUAACA | 0.671 ± 0.042
UUCACUGUCACCUUCUCUGUCAGAUUAACA | 0.0116 ± 0.0029
UAGUGUGUCACCUUCUCUGACUGAUUAACA | 0.0144 ± 0.0043
UUCACUGUCACCUUCUGUGAGAGAUUAACA | 0.601 ± 0.028
UUCACACUCACCUUCUCUGAGAGAUUAAGA | 0.0911 ± 0.016
UAGACUGUCACCUUCUCUGAGGAUUAACA | 0.00433 ± 0.0033
UAGUGACACACCUUCUCUGAGAGAUUGAACA | 0.218 ± 0.033
UAGUGACACCCUUCUCUGAGAGAUUAACA | 0.192 ± 0.026
UAGUCUGUCACCUUCUCUGUGAGAUUAACA | 0.295 ± 0.012
UAGUGACAGUCCUUCUCUGCGAGAUUAACA | 0.0159 ± 0.0032
UAGUGACUCACCUUCUCAGAGAGAAUAACA | 0.0107 ± 0.0045
UAGACUGUCUACCUUCUCUGAGAGAUUAACA | 0.157 ± 0.019
UAGUCUGUCACCUUCUUUGAGAGAUUAACA | 0.467 ± 0.026
UAGUGACAGUGCUUCUCUUAGAGAUUAACA | 0.00506 ± 0.0023
UUCACUGACACCUUCUCUGAGUGAUUAACA | 0.0384 ± 0.0075
UUCACUGUCUCCAUCUCUGAGAGAUUAACA | 0.597 ± 0.036
UUCACUGUCACCUUCUCUGAGACAAUAACA | 0.0291 ± 0.008

Sequence | pre-steady-state target cleavage rate
UUCACUGUCACCUUCUGUGUGAGAUUAACA | 0.075 ± 0.0075
UAGUCAGUCACCUUCUCUGAGAGAUAUUGA | 0.0156 ± 0.0059
UAGUGACUCACCAUCACUGAGAGAUUAACA | 0.0572 ± 0.012
UAGUCUGUGACCUUCUCUGAGAGAUUAUCA | 0.165 ± 0.019
AUCUGAGUCACCUUCUCUGAGAGAUUUUGA | 0.093 ± 0.019
UUGACUGUCACCAUCUCUGAGAGAUUAACA | 0.756 ± 0.044
UAGACUGUCACCUUCUUCUGAGAGAUUAACA | 0.0209 ± 0.0083
AUCACUGUCACCUUCAUCUGAGAGAUUAACA | 0.275 ± 0.053
UACACUGUCACCUUCUCUGAGAGAUUAAAA | 0.137 ± 0.022
AUCACAGUCACCUUCUCUGAGAGAUUAACA | 0.707 ± 0.028
UAGUGAGUCACCUUCUGUGAGAGAUUAUCA | 0.032 ± 0.0068
AUCACUGUCACCUUCUCUGAGAUAUUAACA | 0.296 ± 0.026
UAGUGACAGACCUUGUCUGAGAGAUUUACA | 0.0115 ± 0.0065
UAGUGAGUCAGCUUCUCUGAGAGAUUAUCA | 0.232 ± 0.028
AUCACUGUCAGCUACUCUGAGAGAUUAACA | 0.657 ± 0.038
UAGUGACGCACCUUCUCUGAGAGAUUAACA | 0.6 ± 0.046
UUCACUGUCAGCUUCUCUGAGAGAUUUACA | 0.274 ± 0.033
UAGACUGUCACCUACUCUGAGUGAUUAACA | 0.0181 ± 0.0032
UAGUGACAGUCCGUUCUCUGAGAGAUUAACA | 0.414 ± 0.036
UAGUGACUCACCUACUCUGUGAGAUUAACA | 0.0484 ± 0.0058
UAGUCUGUCACCUUCUCAGUGAGAUUAACA | 0.0242 ± 0.0042
UUCACUGUCACCUUCUCUGAGAGAUAAUCA | 0.149 ± 0.025
UAGUGACACACCUUCUCUGUGAGAUUAUCA | 0.0476 ± 0.0093
UAGUGACAGUGCUUCUCUGACAGAUUAUCA | < 0.0001
UUCACUGUCACCUUCUCUCAGACAUUAACA | 0.0579 ± 0.005

Sequence | pre-steady-state target cleavage rate
AUCACUGUCACCUUCACUGAGAGAUAAACA | 0.299 ± 0.045
UACACUGUCACCAUCUCUGAGAGUUUAACA | 0.317 ± 0.056
UAGUGACACACCUUCUCUGAGACAUAAACA | 0.00704 ± 0.0039
UAGUCUCUCACCUUCUCUGAGAGAUAAACA | 0.054 ± 0.009
UAGUCUGUCACCUACUCAGAGAGAUUAACA | 0.14 ± 0.014
AUCACUGUCACCUUCUCUGAGACAUAUUGA | 0.00392 ± 0.0034
AUCACUGUCACCUUCUGUGAGAGAUUAUCA | 0.0835 ± 0.019
UAGUGACAGACCAACUCUGAGAGAUUAACA | 0.00397 ± 0.0025
UAGUGACAGUGGAAGACUGAGAGAUUAACC [g2:g14:cont:t1C] | < 0.0001
UAGACUGUCAGCUUCUCUGAGAGAUUAAGA | 0.0909 ± 0.017
UAGACACUCACCUUCUCUGAGAGAUUAACA | 0.642 ± 0.039
UUCACUGUCAUCUUCUCUGAGAGAUUAACA | 0.596 ± 0.027
UUCACAGUCACCUUCACUGAGAGAUUAACA | 0.376 ± 0.027
UAGUGACACACCUAGUCUGAGAGAUUAACA | 0.0121 ± 0.0034
UAGUGACAGUGCUUCUCUGAGAGAAUAAGA | < 0.0001
AUCACUGUCACCUACUCUCAGAGAUUAACA | 0.0744 ± 0.0084
UAGUGACACACCUUCUCUGAGAGAUUAAUA | 0.37 ± 0.046
UACACUGACACCUUCUCUGAGUGAUUAACA | 0.0293 ± 0.0068
UAGUCUGUCUCCUUCUCUGACAGAUUAACA | 0.0368 ± 0.0053
UUCACUGUCACCUUGUCUGAGACAUUAACA | 0.193 ± 0.026
UAGUGACAGACCUACUCUGAGAGAUUAAGA | 0.0057 ± 0.003
UAGUCUGUCACCUUCUCUCAGAGAAUAACA | 0.0232 ± 0.0076
UAGACUGAGACCUUCUCUGAGAGAUUAUGA | 0.0178 ± 0.0037
